Single values are uncertain, as repeats are few or missing.
Legend:
[1] = test system: CHO-K1; assay: relative survival (nuclei to bead ratio vs DMSO control) (% of vehicle control); higher = more surviving cells
Experimental: (§1)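 Flow-cytometric in vitro micronucleus assay (Litron MicroFlow) in CHO-K1 cells in 96-well plates, 19 concentrations (4.5-200 µM, n=1 per concentration). Without S9, cells were exposed for 24 h and sampled at 48 h. With Aroclor 1254-induced rat liver S9, cells were exposed for 3-4 h and sampled at 27-28 h. Read-outs are %MN and %hypodiploid nuclei relative to nucleated events, and relative survival as the nuclei-to-bead ratio versus the 1% DMSO vehicle control (x100).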

[2] = test system: CHO-K1; assay: hypodiploid nuclei frequency (% of nucleated events); higher = more hypodiploid events (aneugenic)
Experimental: as §1

[3] = test system: CHO-K1; assay: micronucleus frequency (% of nucleated events); higher = more micronuclei (genotoxic)
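Wherever hypodiploid nuclei frequency (% of nucleated events) is given: hypodiploid nuclei gated on a flow cytometer with 488 nm excitation after SYTOX Green staining, cultures at 37 °C, positive controls vinblastine without S9 and cyclophosphamide with S9.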
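Wherever micronucleus frequency (% of nucleated events) is given: cells lysed with nuclei stained by SYTOX Green, then micronucleus-gated events counted against nucleated events by flow cytometry with 488 nm excitation.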
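Wherever relative survival (nuclei to bead ratio vs DMSO control) is given: Lysed-cell nuclei stained with SYTOX Green and counted against counting beads by flow cytometry at 488 nm excitation, with vinblastine (no S9) and cyclophosphamide (plus S9) as positive controls.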

CCCCC(CC)COC(=O)CCCCCCCCC(=O)OCC(CC)CCCC (stereo not drawn) [Bis(2-ethylhexyl) decanedioate]
Conditions	hypodiploid nuclei frequency, [2] [%]	micronucleus frequency, [3] [%]	relative survival, [1]
concentration: 4.5 (µM), S9 metabolic activation: with S9, exposure time: 3-4 hours	0.2	1.72	82.3
concentration: 4.5 (µM), S9 metabolic activation: without S9, exposure time: 24 hours	0.58	2.82	91.2
concentration: 5.63 (µM), S9 metabolic activation: with S9, exposure time: 3-4 hours	0.26	1.74	112
concentration: 5.63 (µM), S9 metabolic activation: without S9, exposure time: 24 hours	0.66	2.92	88.8
concentration: 7.04 (µM), S9 metabolic activation: with S9, exposure time: 3-4 hours	0.42	1.3	79.6
concentration: 7.04 (µM), S9 metabolic activation: without S9, exposure time: 24 hours	0.44	3.56	102
concentration: 8.8 (µM), S9 metabolic activation: with S9, exposure time: 3-4 hours	0.26	1.28	93
concentration: 8.8 (µM), S9 metabolic activation: without S9, exposure time: 24 hours	0.7	2.86	99.2
concentration: 11 (µM), S9 metabolic activation: with S9, exposure time: 3-4 hours	0.22	1.58	103
concentration: 11 (µM), S9 metabolic activation: without S9, exposure time: 24 hours	0.72	2.26	108
concentration: 13.7 (µM), S9 metabolic activation: with S9, exposure time: 3-4 hours	0.46	1.82	87.4
concentration: 13.7 (µM), S9 metabolic activation: without S9, exposure time: 24 hours	0.62	1.76	103
concentration: 17.2 (µM), S9 metabolic activation: with S9, exposure time: 3-4 hours	0.24	1.84	79.8
concentration: 17.2 (µM), S9 metabolic activation: without S9, exposure time: 24 hours	0.86	2.74	125
concentration: 21.5 (µM), S9 metabolic activation: with S9, exposure time: 3-4 hours	0.26	1.64	111
concentration: 21.5 (µM), S9 metabolic activation: without S9, exposure time: 24 hours	0.54	2.24	123
concentration: 26.8 (µM), S9 metabolic activation: with S9, exposure time: 3-4 hours	0.32	2.28	116
concentration: 26.8 (µM), S9 metabolic activation: without S9, exposure time: 24 hours	0.44	2.34	112
concentration: 33.6 (µM), S9 metabolic activation: with S9, exposure time: 3-4 hours	0.46	2.5	113
concentration: 33.6 (µM), S9 metabolic activation: without S9, exposure time: 24 hours	0.9	1.98	115
concentration: 41.9 (µM), S9 metabolic activation: with S9, exposure time: 3-4 hours	0.36	1.86	107
concentration: 41.9 (µM), S9 metabolic activation: without S9, exposure time: 24 hours	0.62	2.46	98.4
concentration: 52.4 (µM), S9 metabolic activation: with S9, exposure time: 3-4 hours	0.24	1.96	107
concentration: 52.4 (µM), S9 metabolic activation: without S9, exposure time: 24 hours	0.48	1.96	98.4
concentration: 65.5 (µM), S9 metabolic activation: with S9, exposure time: 3-4 hours	0.36	1.7	94.1
concentration: 65.5 (µM), S9 metabolic activation: without S9, exposure time: 24 hours	0.84	2.8	124
concentration: 81.9 (µM), S9 metabolic activation: with S9, exposure time: 3-4 hours	0.3	2.08	85.6
concentration: 81.9 (µM), S9 metabolic activation: without S9, exposure time: 24 hours	0.76	2.14	108
concentration: 102 (µM), S9 metabolic activation: with S9, exposure time: 3-4 hours	0.3	2.64	99.7
concentration: 102 (µM), S9 metabolic activation: without S9, exposure time: 24 hours	1.16	2.42	101
concentration: 128 (µM), S9 metabolic activation: with S9, exposure time: 3-4 hours	0.38	1.66	85.6
concentration: 128 (µM), S9 metabolic activation: without S9, exposure time: 24 hours	0.92	2.36	90.5
concentration: 160 (µM), S9 metabolic activation: with S9, exposure time: 3-4 hours	0.36	1.54	76.4
concentration: 160 (µM), S9 metabolic activation: without S9, exposure time: 24 hours	0.92	2.62	117
concentration: 200 (µM), S9 metabolic activation: with S9, exposure time: 3-4 hours	0.16	1.52	88.4
concentration: 200 (µM), S9 metabolic activation: without S9, exposure time: 24 hours	1.2	2.9	98.8
